Experimental data: the antibiotic and cytotoxicity screens of Wong et al. (2023)
Some of the results follow.

Legend:
[1] = system: HSkMC (human skeletal muscle cells); assay: cytotoxicity call (relative viability < 0.9); settings: 10 µM
[2] = system: HepG2; assay: cytotoxicity call (relative viability < 0.9); settings: 10 µM
[3] = system: S. aureus RN4220; assay: growth inhibition call (relative growth <= 0.2); settings: 50 µM

`C[C@H](CO)N1C[C@H](C)[C@@H](CN(C)Cc2ccc(-c3ccccc3)cc2)Oc2ccc(NC(=O)Cc3ccccc3)cc2C1=O` was tested, and the cytotoxicity call [1] was “inactive”, the cytotoxicity call [2] was “inactive” and the growth inhibition call [3] was “inactive”.

In the case of `CC1(C)OC(=O)N(CCCC(=O)O)[C@@]1(C)O`, the cytotoxicity call [1] is reported as “inactive”, the cytotoxicity call [2] is reported as “inactive” and the growth inhibition call [3] is reported as “inactive”.

In the case of `CC12CCC(=O)C=C1CCC1C2C(=O)CC2(C)C1CCC2(O)C(=O)CO` (centres undefined), the cytotoxicity call [1] is reported as “inactive”, the cytotoxicity call [2] is reported as “inactive” and the growth inhibition call [3] is reported as “inactive”.

In the case of `O=C1O[C@H](c2ccccc2)[C@H](c2ccccc2)N2[C@H]1[C@@H](C(=O)O)[C@]1(C(=O)Nc3ccc(C#CC4=CCCCC4)cc31)[C@H]2C1CCCCC1`, the cytotoxicity call [1] is reported as “inactive”, the cytotoxicity call [2] is reported as “active” and the growth inhibition call [3] is reported as “inactive”.

In the case of `CO[C@H]1CN(C)C(=O)c2ccc(NC(=O)c3ccc(F)cc3)cc2OC[C@H](C)N(C(=O)CN(C)C)C[C@@H]1C`, the cytotoxicity call [1] is reported as “inactive”, the cytotoxicity call [2] is reported as “inactive” and the growth inhibition call [3] is reported as “inactive”.

For `C[C@H]1CN([C@@H](C)CO)C(=O)c2cccc(NC(=O)Nc3cccc4ccccc34)c2O[C@@H]1CN(C)C(=O)Nc1ccc(C(F)(F)F)cc1`, the cytotoxicity call [1] was “active”, the cytotoxicity call [2] was “active” and the growth inhibition call [3] was “inactive”.

With `COCCOC(=O)N1C(=O)[C@@]2(c3cc(C#Cc4ccc(OC)cc4)ccc31)[C@H](c1ccc(O)cc1)N1[C@H](c3ccccc3)[C@H](c3ccccc3)OC(=O)[C@H]1[C@@H]2C(=O)NC[C@H](O)c1ccccc1` the cytotoxicity call [1] was “inactive”, the cytotoxicity call [2] was “inactive” and the growth inhibition call [3] was “inactive”.

For `C[C@@H]1CCCCO[C@H](CN(C)Cc2ccccc2)[C@H](C)CN([C@H](C)CO)C(=O)c2cc(NC(=O)Nc3ccc(C(F)(F)F)cc3)ccc2O1`, the cytotoxicity call [1] was “active”, the cytotoxicity call [2] was “active” and the growth inhibition call [3] was “inactive”.

With `NC(=O)N1c2ccccc2C=Cc2ccccc21` the cytotoxicity call [1] was “inactive”, the cytotoxicity call [2] was “inactive” and the growth inhibition call [3] was “inactive”.

With `C[C@@H]1CN([C@H](C)CO)C(=O)c2cc(NC(=O)Nc3ccccc3)ccc2O[C@@H]1CN(C)Cc1ccc(-c2ccccc2)cc1` the cytotoxicity call [1] was “inactive”, the cytotoxicity call [2] was “active” and the growth inhibition call [3] was “inactive”.

For `C[C@@H]1CN([C@@H](C)CO)C(=O)c2cccc(NC(=O)C3CCOCC3)c2O[C@@H]1CN(C)S(=O)(=O)c1cccs1`, the cytotoxicity call [1] was “inactive”, the cytotoxicity call [2] was “inactive” and the growth inhibition call [3] was “inactive”.

With `COc1ccc(S(=O)(=O)N2C[C@@H](O)COC[C@H]3O[C@H](CC(=O)NCCCN4CCOCC4)CC[C@@H]32)cc1` the cytotoxicity call [1] was “inactive”, the cytotoxicity call [2] was “inactive” and the growth inhibition call [3] was “inactive”.

With `O=C(C[C@@H]1CC[C@H]2[C@@H](COC[C@H](O)CN2C(=O)Nc2ccc3c(c2)OCO3)O1)N1CCN(c2ccccc2)CC1` the cytotoxicity call [1] was “inactive”, the cytotoxicity call [2] was “inactive” and the growth inhibition call [3] was “inactive”.

For `COc1cccc(NC(=O)N[C@@H]2CC[C@@H](CC(=O)N3CCOCC3)O[C@@H]2CO)c1`, the cytotoxicity call [1] was “inactive”, the cytotoxicity call [2] was “inactive” and the growth inhibition call [3] was “inactive”.

In the case of `COc1ccc(NC(=O)N(C)C[C@@H]2Oc3ccc(NS(=O)(=O)c4c(C)noc4C)cc3CC(=O)N([C@H](C)CO)C[C@@H]2C)cc1`, the cytotoxicity call [1] is reported as “inactive”, the cytotoxicity call [2] is reported as “inactive” and the growth inhibition call [3] is reported as “inactive”.

With `COc1ccc(S(=O)(=O)Nc2ccc3c(c2)C(=O)N([C@@H](C)CO)C[C@H](C)[C@@H](CN(C)Cc2ccccc2)OCCCC[C@H](C)O3)cc1` the cytotoxicity call [1] was “inactive”, the cytotoxicity call [2] was “inactive” and the growth inhibition call [3] was “inactive”.

For `O=C1N[C@@H](c2ccccc2)COCc2cn(nn2)CC[C@H](Cc2ccc(C(F)(F)F)cc2)C(=O)N[C@@H](c2ccccc2)COCc2cn(nn2)CC[C@@H]1Cc1ccc(C(F)(F)F)cc1`, the cytotoxicity call [1] was “inactive”, the cytotoxicity call [2] was “inactive” and the growth inhibition call [3] was “inactive”.

In the case of `COc1ccc(CN(C)C[C@@H]2OCCCC[C@H](C)Oc3ccc(NS(=O)(=O)c4ccc(Cl)cc4)cc3C(=O)N([C@@H](C)CO)C[C@H]2C)cc1`, the cytotoxicity call [1] is reported as “inactive”, the cytotoxicity call [2] is reported as “active” and the growth inhibition call [3] is reported as “inactive”.

For `C=C(C)C(=O)N1CCC=CC1=O`, the cytotoxicity call [1] was “active”, the cytotoxicity call [2] was “inactive” and the growth inhibition call [3] was “inactive”.

In the case of `CN1CCN(C(=O)C[C@H]2C=C[C@H](NC(=O)Nc3ccccc3F)[C@H](CO)O2)CC1`, the cytotoxicity call [1] is reported as “inactive”, the cytotoxicity call [2] is reported as “inactive” and the growth inhibition call [3] is reported as “inactive”.

In the case of `O=C(C[C@@H]1C[C@H]2c3cc(NS(=O)(=O)c4ccc(F)cc4)ccc3O[C@H]2[C@H](CO)O1)NC1CCCC1`, the cytotoxicity call [1] is reported as “inactive”, the cytotoxicity call [2] is reported as “inactive” and the growth inhibition call [3] is reported as “inactive”.

For `COc1ccc(NC(=O)N(C)C[C@H]2OCc3cnnn3CCCC(=O)N([C@@H](C)CO)C[C@@H]2C)c(OC)c1`, the cytotoxicity call [1] was “inactive”, the cytotoxicity call [2] was “inactive” and the growth inhibition call [3] was “inactive”.

`COc1ccc(S(=O)(=O)N(C)C[C@@H]2Oc3cc(C#CC4CCCC4)ccc3S(=O)(=O)N([C@@H](C)CO)C[C@@H]2C)cc1` was tested, and the cytotoxicity call [1] was “inactive”, the cytotoxicity call [2] was “inactive” and the growth inhibition call [3] was “inactive”.

With `N#C[C@H](NCCO)c1ccc(F)cc1` the cytotoxicity call [1] was “inactive”, the cytotoxicity call [2] was “inactive” and the growth inhibition call [3] was “inactive”.

In the case of `CCOC(=O)CNC(=O)c1cnn2cccnc12`, the cytotoxicity call [1] is reported as “inactive”, the cytotoxicity call [2] is reported as “inactive” and the growth inhibition call [3] is reported as “inactive”.

For `Cc1noc(C)c1NC(=O)N(C)C[C@@H]1OCCCC[C@H](C)Oc2ccc(NC(=O)Nc3ccc4c(c3)OCO4)cc2C(=O)N([C@H](C)CO)C[C@@H]1C`, the cytotoxicity call [1] was “inactive”, the cytotoxicity call [2] was “inactive” and the growth inhibition call [3] was “inactive”.

`C[C@H]1CN([C@@H](C)CO)C(=O)Cc2cc(NS(=O)(=O)c3cn(C)cn3)ccc2O[C@H]1CN(C)S(=O)(=O)c1ccccc1` was tested, and the cytotoxicity call [1] was “inactive”, the cytotoxicity call [2] was “inactive” and the growth inhibition call [3] was “inactive”.

In the case of `COc1ccc(-c2cc(=O)c3c(O)cc(O[C@@H]4O[C@H](CO)[C@@H](O)[C@H](O)[C@H]4O[C@@H]4O[C@H](COC(C)=O)[C@@H](O)[C@@H](O)[C@H]4O)c(O)c3o2)cc1`, the cytotoxicity call [1] is reported as “inactive”, the cytotoxicity call [2] is reported as “inactive” and the growth inhibition call [3] is reported as “inactive”.

For `OC[C@H]1COc2ccccc2O1`, the cytotoxicity call [1] was “inactive”, the cytotoxicity call [2] was “inactive” and the growth inhibition call [3] was “inactive”.

With `C[C@@H]1CN([C@H](C)CO)C(=O)Cc2cc(NC(=O)Cc3ccccc3)ccc2O[C@H]1CN(C)C(=O)Nc1ccc(C(F)(F)F)cc1` the cytotoxicity call [1] was “inactive”, the cytotoxicity call [2] was “inactive” and the growth inhibition call [3] was “inactive”.

In the case of `Cc1noc(C)c1S(=O)(=O)Nc1ccc2c(c1)C(=O)N([C@@H](C)CO)C[C@H](C)[C@@H](CN(C)Cc1ccccc1)OCCCC[C@H](C)O2`, the cytotoxicity call [1] is reported as “inactive”, the cytotoxicity call [2] is reported as “inactive” and the growth inhibition call [3] is reported as “inactive”.

For `C[C@@H]1CN([C@@H](C)CO)C(=O)c2cc(C#CC3(O)CCCC3)cnc2O[C@@H]1CN(C)S(C)(=O)=O`, the cytotoxicity call [1] was “inactive”, the cytotoxicity call [2] was “inactive” and the growth inhibition call [3] was “inactive”.

With `C1CCN=C(NC2CCCCC2)CC1` the cytotoxicity call [1] was “inactive”, the cytotoxicity call [2] was “inactive” and the growth inhibition call [3] was “inactive”.
